The source of these data is PubChem BioAssay (NCI).

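How tested: cells in 96-well plates exposed to compound for 48 hours at five concentrations. GI50 = concentration required for 50% inhibition of growth. TGI denotes the concentration required for complete inhibition of growth.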

The test has as its system NCI-H322M lung. In words: NCI tumour cell line growth inhibition, 48 h.
On to `CN(C)C(=O)c1cc(-c2ccc3ncnc(N4CCc5cc(F)c(Cl)cc54)c3c2)cnc1N`, for which the GI50 is 0.136 µM and the TGI was found to be 1.22 µM.

For the compound `C=C1CC[C@@H]2[C@]3(C)COC(c4ccccc4)O[C@@H]3CC[C@@]2(C)[C@@H]1C/C=C1/C(=O)OCC1OC(C)=O` (stereo partly specified), the GI50 is 13.5 µM and the TGI came to 26.4 µM.

With `O=C(CS(=O)(=O)c1oc(-c2ccc(Cl)cc2)nc1S(=O)(=O)c1ccccc1)N1CCCC1`, the GI50 was 13.9 µM and the TGI was 26.8 µM.
